PubChem BioAssay AID1159614 (National Center for Advancing Translational Sciences (NCATS), 2016)
Among all 45,000 compounds or so, about 65 (0.1%) were called active. The call rests on the fitted dose curve; in most records, active means well fitted activation curve with a large enough effect; inconclusive means small, poorly fitted or top-dose-only effect; inactive means no such curve, though single readings can be large or run the other way. This is one part of the list.

Biological target: Galactocerebrosidase (Homo sapiens) (UniProt P54803)
Chain of UniProt P54803 (P54803 whole entry, looked up): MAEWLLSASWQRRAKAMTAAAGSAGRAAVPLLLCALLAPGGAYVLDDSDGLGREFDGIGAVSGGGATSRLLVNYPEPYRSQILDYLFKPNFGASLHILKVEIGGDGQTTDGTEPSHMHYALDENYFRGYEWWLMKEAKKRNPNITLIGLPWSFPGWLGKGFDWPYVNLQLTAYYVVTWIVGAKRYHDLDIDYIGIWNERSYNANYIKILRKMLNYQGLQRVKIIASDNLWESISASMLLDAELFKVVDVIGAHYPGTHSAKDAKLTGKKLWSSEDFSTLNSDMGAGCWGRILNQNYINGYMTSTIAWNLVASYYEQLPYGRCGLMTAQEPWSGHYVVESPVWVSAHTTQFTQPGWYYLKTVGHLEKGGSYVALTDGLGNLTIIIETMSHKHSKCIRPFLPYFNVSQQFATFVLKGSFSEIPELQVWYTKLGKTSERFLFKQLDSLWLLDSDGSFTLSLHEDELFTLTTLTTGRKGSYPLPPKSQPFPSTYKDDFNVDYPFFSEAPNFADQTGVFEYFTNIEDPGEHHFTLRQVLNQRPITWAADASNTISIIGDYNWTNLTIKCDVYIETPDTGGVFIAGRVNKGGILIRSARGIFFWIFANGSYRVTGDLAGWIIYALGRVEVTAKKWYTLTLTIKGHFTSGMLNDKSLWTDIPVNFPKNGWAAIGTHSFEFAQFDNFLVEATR
Assay: A Novel Cell-Based Assay to Identify Small Molecules for B -Galactocerebrosidase; further: 0% is about no effect; nearly all actives have a fitted effect of over 65% in size
Conditions: 145M-Twi-hGALC-G270D cells (Twitcher mouse brain line with human GALC G270D), HMU-beta-Gal fluorescence, 48 h; series mostly up to 57.5 µM; activation: at the top concentration
Outline: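 Fluorogenic HMU-b-Gal hydrolysis (0.1 mM final, pH 5.2 citrate-phosphate with 1 mg/mL sodium taurocholate; carbonate stop buffer) measures mutant GALC activity after compound treatment of live 145M-Twi Twitcher brain cells stably carrying human GALC-G270D, with wild-type GALC line alongside; activation sought.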

activation, inactive:
COc1ccccc1NC(=O)c1ccc2c(Cl)c3c(nc2c1)CCCC3 -5.87%
COc1ccc(-n2c(=O)c3c4c(sc3n(Cc3ccccc3)c2=O)CN(C(C)=O)CC4)cc1OC -1.01%
CC(=O)OCc1cnc(C)c2oc(=O)c(C(=O)Nc3cccc(F)c3)cc12 -6.83%
COc1cc(Cl)c(C)cc1NC(=O)c1cc2ccc3cccnc3c2[nH]1 -29.1%
O=C(c1cc(=O)c2cc(Cl)ccc2o1)N(Cc1ccccc1)C1CCS(=O)(=O)C1 (centres undefined) -13.9%
COc1ccc(Cl)cc1-n1nnc(-c2nc(-c3ccc4c(c3)OCO4)no2)c1C -8.21%
CCCNC(=O)C1CCC(Cn2c(=O)c3sccc3n(Cc3ccccc3C)c2=O)CC1 (centres undefined) -2.32%
COc1ccc(NC(=O)CSc2nc3nc(C)c(Cc4ccc(C)cc4)c(C)n3n2)cc1OC -8.79%
COc1cc2[nH]c(=O)n(Cc3ccc(C(=O)NCc4ccccc4)cc3)c(=O)c2cc1OC -12.2%
Cc1nc(N2CCCC2)c2c(C(=O)Nc3cccc(Cl)c3C)c(C)oc2n1 4.82%
Cc1ccc(-n2ncc3c(NCCCc4ccccc4)ncnc32)cc1 -7.5%
CCc1ccc(NC(=O)c2cc(S(=O)(=O)N3CCCCCC3)ccc2F)cc1 -23.9%
Cc1ccc(NC(=O)Nc2nnc(SCC(=O)Nc3ccc(F)cc3F)s2)cc1 -9.03%
Cc1cccc(C)c1NC(=O)c1csc2c1CCCC2 -10.6%
COc1ccccc1NC(=O)C(=O)c1cc(C)n(-c2ccccc2F)c1C -5.67%
O=C(NCCCc1nc2ccccc2n1Cc1cccc(Cl)c1)c1ccco1 -25.3%
Cc1ccc(-n2ncc3c(NCCCN4CCOCC4)ncnc32)cc1Cl -16%
CCCCN1CC(c2nc3ccccc3n2CCCCOc2ccc(C)cc2C)CC1=O (centres undefined) -38.8%
O=C(NCCn1cc(SCc2ccc(F)cc2)c2ccccc21)c1c(F)cccc1F -12%
Cc1ccc(C2c3c(-c4ccccc4O)n[nH]c3C(=O)N2CCCO)cc1 (centres undefined) -20.6%
CCOC(=O)c1cccc(NC(=O)c2ccc3c(c2)nnn3C2CCCC2)c1 0.619%
COc1cc(C(=O)NC2CCCNC2)cc(OC)c1OC (centres undefined) -3.76%
Cn1nnnc1SCCNCc1ccccc1OCc1ccccc1F 5.62%
Cc1ccc(Cn2c(C(=O)Nc3cccc(Cl)c3)cc3sccc32)cc1 -21.4%
Cn1cnc(S(=O)(=O)N2CCCC(C(=O)Nc3ccc(F)cc3Cl)C2)c1 (centres undefined) -12.2%
CSc1ncc(Cl)c(C(=O)Nc2ccc(S(=O)(=O)N3CCC(C)CC3)cc2)n1 -17.3%
CCCCc1cc(=O)oc2cc(C)c3c(C)coc3c12 -19.7%
COc1cccc(CNC(=O)C2CCN(c3nc4ccc(Cl)cc4[nH]3)CC2)c1 -4.76%
CCc1ccc(OCCCSc2nc(-c3ccc(C(C)(C)C)cc3)nc3cc(=O)[nH]n23)cc1 -38.1%
COC(=O)c1ccc(NS(=O)(=O)c2ccc(-n3cccn3)cc2)cc1 -2.94%
CC(=O)c1ccc(N2CCN(S(=O)(=O)c3ccc4c(c3)CC(C)N4C(=O)C3CCC3)CC2)cc1 (centres undefined) -14.7%
COc1ccc2c(c1)CC(NC(=O)Nc1cc(Cl)ccc1OC)CO2 (centres undefined) -13.4%
COc1cccc(C(=O)Nc2ccc(Cl)c(-c3nc4ccccc4[nH]3)c2)c1 -19%
CSc1nc(C)cc(Nc2c(C)cc(C)cc2C)n1 -8.4%
Cc1ccccc1NC(=O)c1ccc2nc(Cc3ccccc3)oc2c1 -28.1%
CC(=O)c1ccc(NS(=O)(=O)c2cc(-c3cnc(C4CC4)o3)ccc2C)cc1 1.61%
Cc1ccc(S(=O)(=O)c2cn(C)c3cc(N4CCCCCC4)c(F)cc3c2=O)cc1 -11.7%
O=C(CCSCc1cnn(-c2ccccc2)c1-n1cccc1)NCc1ccccc1F -10.8%
CCOc1ccc(NC(=O)c2cc3c(-c4ccccc4F)nn(C)c3s2)cc1 -10.6%
Cn1c(SCc2ccc(F)cc2)nc2c([nH]c3ccccc32)c1=O -0.221%
Cc1ccc(Cn2c(=O)n(-c3ccccc3)c(=O)c3ccc(C(=O)NCc4ccco4)cc32)cc1 -13.6%
C=Cc1ccc(Cn2c(C(=O)O)c(CNCc3cccs3)c3ccc(C)cc32)cc1 -8.52%
COc1ccccc1C(=O)Nc1c(C(=O)N(CCN(C)C)Cc2ccco2)oc2ccccc12 -21.9%
COc1ccc(OCC2c3cc(OC)c(OC)cc3CCN2C(=O)c2ccc(F)cc2)cc1 (centres undefined) -23.2%
CCN(CC)CCNC(=O)c1sc2nc3n(c(=O)c2c1C)CCCCC3 -7.87%
COc1ccc(C(=O)Nc2cc(-c3cccc(C)c3)nn2-c2ccccc2)cc1 -12.9%
Cc1ccc(-c2cn3c(n2)sc2cc(C(=O)NCCCN4CCCCC4)ccc23)cc1 8.06%
COc1ccc2cc3cc(C(=O)N4CCN(c5ccc(C(C)=O)cc5)CC4)sc3nc2c1Cl -22.4%
CCOC(=O)c1c(C)oc2nc(C)nc(N3CCN(c4ccc(C(C)=O)cc4)CC3)c12 -13.8%
COc1cccc(C(=O)N(Cc2sccc2C)C2CCS(=O)(=O)C2)c1 (centres undefined) 1.54%
CC(C)(C)OC(=O)N1CCC(c2c(C(=O)NCc3ccc(F)cc3)cnn2-c2ccc(F)cc2)CC1 1.6%
Cc1cc(NC(=O)Cn2c(=O)nc(-c3ccccc3F)c3cc(Cl)ccc32)ccc1Br 0.172%
O=S(=O)(NCCc1csc2nc(-c3ccc(F)cc3)nn12)c1ccc(Br)cc1 -12.7%
CCOC(=O)c1ccc(NC(=O)c2c(NCc3cccs3)sc3c2CCCCC3)cc1 -10.7%
CCCC(=O)O[C@]1(C(=O)CC)CC[C@H]2[C@@H]3CCC4=CC(=O)CC[C@]4(C)[C@H]3[C@@H](O)C[C@@]21C -1.06%
O=S(=O)(NCc1nc2cccnc2n1Cc1ccc(F)cc1)c1ccc2c(c1)CCCC2 -2.21%
CCOC(=O)c1c(N)n(-c2ccc(Cl)c(Cl)c2)c2nc3ccccc3nc12 4.55%
COc1cccc(CSc2nc3n(n2)C(c2cccs2)C(C(=O)Nc2ccccc2C)=C(C)N3)c1 (centres undefined) -5.83%
COc1cn(CC(=O)Nc2ccc(F)cc2)c(CN2CCCCC2)cc1=O -5.29%
CCN1CCN(c2cc(C)c3cc(NC(=O)c4cccc(C(F)(F)F)c4)ccc3n2)CC1 0.41%
Cc1ccc(NC(=O)Cn2c(=O)n(-c3ccc(Cl)c(Cl)c3)c(=O)c3c(C)c(C)sc32)c(C)c1 -12.6%
Cc1cccc(Cn2c(CN3CCC(C(=O)NCc4cccnc4)CC3)cc3ccccc32)c1 -4.79%
CC1=C(C(=O)Nc2ccccc2C)C(c2ccncc2)n2nc(SCc3ccccc3)nc2N1 (centres undefined) -12.4%
Cc1ccc(OCCn2cc(C(=O)C3CCCCC3)c3ccccc32)cc1 -2.29%
CCOC(=O)c1ccc(NC(=O)CC2C(=O)N(c3cccc(OC)c3)C(=O)N2C2CCCCC2)cc1 (centres undefined) -19.7%
Cc1ccc2[nH]c3c(=O)n(CC(=O)NCc4ccco4)ncc3c2c1 -11.1%
CCCCCCCCCCCCCCNCCO -17.4%
Cc1nn(CC(=O)NCc2ccc(F)cc2)c2ccccc12 -7.97%
CCCN(Cc1cccs1)C(=O)Nc1cc(Cl)ccc1C -7.69%
COc1ccc(Cl)cc1NC(=O)Cn1ncc2c3ccccc3n(C)c2c1=O 3.26%
CCOC(=O)c1ccc2nc(C)cc(Nc3cccc(C(=O)O)c3)c2c1 -4.61%
CCOC(=O)c1c(C)n(-c2ccccc2)c2ccc(OC(=O)c3ccccc3NC(=O)C(C)C)cc12 -3.27%
CC(=O)Nc1ccc(NC(=O)C2CCN(c3c(NC(C)=O)c(C)nn3-c3ccccc3)CC2)cc1 -3.5%
CCOC(=O)c1cccc(NC(=O)CCCn2nc(C)c3c(C)n(-c4ccccc4)nc3c2=O)c1 -4.72%
O=C(NCc1ccc(Cl)cc1)c1ccc2c(Cl)c3c(nc2c1)CCCC3 -27.6%
Cc1ccc(OCCSc2nnc(-c3cccs3)o2)cc1Cl -1.98%
Cc1ccc(Cn2c(CN3CCC(C(=O)NCc4ccccc4C)CC3)cc3ccccc32)cc1 -4.23%
Cc1ccc(CNc2nc(-c3ccco3)nn2S(C)(=O)=O)cc1 -26.3%
CCOc1ccccc1CNC(=O)CCn1c(=O)c2cccn2c2ccc(F)cc21 -12.7%
COc1ccc2c(c1)c(=O)c(C(=O)c1ccc(C)c(C)c1)cn2CC(=O)Nc1ccc2c(c1)OCCO2 -1.08%
COc1ccc(NC(=O)C2COc3ccccc3C2)cc1Cl (centres undefined) -21.5%
COc1ccc(-c2nc3cc(C(C)C)ccc3o2)cc1NC(=O)c1ccccc1[N+](=O)[O-] -9.33%
Cn1c(SCC(=O)Nc2ccccc2)nnc1-c1ccccc1 -10.8%
COc1ccc(Cl)cc1-n1nnc(-c2nc(-c3ccccc3)no2)c1C -21.1%
O=C1OC2(c3ccc(O)cc3Oc3cc(O)ccc32)c2ccccc21 11.1%
Cc1nnc(N2C(=O)c3oc4ccccc4c(=O)c3C2c2ccc(C(C)(C)C)cc2)s1 (centres undefined) -5.06%
COc1ccc(C)cc1NC(=O)CN1c2ccccc2S(=O)(=O)c2ccccc21 -13%
COc1ccc(C(=O)CSc2nc(C)cc(C)c2C(=O)Nc2ccccc2C)cc1 -12.5%
CCc1ccc(NC(=O)CSc2nc3ccccc3nc2Cc2ccc(C)cc2)cc1 -2.67%
Cc1ccc(NC(=O)CCOc2ccccc2)cc1 -21.9%
Cc1nc(N2CCCC2)ncc1C(=O)NCc1cccc(Cl)c1 -6.02%
COC(=O)c1ccc(NC(=O)CCS(=O)(=O)c2ccc(Br)s2)cc1 -19.2%
COc1ccc(NC(=O)c2cccc(N3CCCS3(=O)=O)c2)cc1OC -14%
CC(C)Cc1ccc(S(=O)(=O)N2CCC(c3ccncc3)CC2)cc1 -12.5%
COc1ccccc1N1CCN(C(=O)Cn2c(=O)n3nc(-c4ccc(C)cc4)nc3c3ccccc32)CC1 -20.1%
COc1ccccc1CNC(=O)c1ccc(CS(=O)(=O)c2c(Cl)cccc2Cl)o1 -7.55%
Cc1cccc(OCCSc2nc3ccccc3n2CC(=O)N2CCOCC2)c1 -5.91%
CC(=O)OCC1=C(C(=O)O)N2C(=O)[C@@H](NC(=O)CSc3ccncc3)[C@H]2SC1 -22.2%

Potency, inactive:
Cc1ccc2c(n1)Oc1ccc(C(C)C(=O)OCC(=O)N(C)C)cc1C2 (centres undefined)
